Reference: article PMC4336329 (PLoS ONE, 2015)
Out of some 310,000 compounds screened, about 14,000 (4.5%) showed an effect of 50% or more. Effects have a minus sign here. This is one part of the list.

Target: human ether-à-go-go-related gene (hERG) potassium channel (human, UniProt Q12809)
Test: primary screen, population patch clamp on CHO cells stably expressing hERG
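Further: peak tail current of the secondary pulse compared with the same well before compound.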

human ether-à-go-go-related gene (hERG) potassium channel, sequence (Q12809 whole entry, looked up): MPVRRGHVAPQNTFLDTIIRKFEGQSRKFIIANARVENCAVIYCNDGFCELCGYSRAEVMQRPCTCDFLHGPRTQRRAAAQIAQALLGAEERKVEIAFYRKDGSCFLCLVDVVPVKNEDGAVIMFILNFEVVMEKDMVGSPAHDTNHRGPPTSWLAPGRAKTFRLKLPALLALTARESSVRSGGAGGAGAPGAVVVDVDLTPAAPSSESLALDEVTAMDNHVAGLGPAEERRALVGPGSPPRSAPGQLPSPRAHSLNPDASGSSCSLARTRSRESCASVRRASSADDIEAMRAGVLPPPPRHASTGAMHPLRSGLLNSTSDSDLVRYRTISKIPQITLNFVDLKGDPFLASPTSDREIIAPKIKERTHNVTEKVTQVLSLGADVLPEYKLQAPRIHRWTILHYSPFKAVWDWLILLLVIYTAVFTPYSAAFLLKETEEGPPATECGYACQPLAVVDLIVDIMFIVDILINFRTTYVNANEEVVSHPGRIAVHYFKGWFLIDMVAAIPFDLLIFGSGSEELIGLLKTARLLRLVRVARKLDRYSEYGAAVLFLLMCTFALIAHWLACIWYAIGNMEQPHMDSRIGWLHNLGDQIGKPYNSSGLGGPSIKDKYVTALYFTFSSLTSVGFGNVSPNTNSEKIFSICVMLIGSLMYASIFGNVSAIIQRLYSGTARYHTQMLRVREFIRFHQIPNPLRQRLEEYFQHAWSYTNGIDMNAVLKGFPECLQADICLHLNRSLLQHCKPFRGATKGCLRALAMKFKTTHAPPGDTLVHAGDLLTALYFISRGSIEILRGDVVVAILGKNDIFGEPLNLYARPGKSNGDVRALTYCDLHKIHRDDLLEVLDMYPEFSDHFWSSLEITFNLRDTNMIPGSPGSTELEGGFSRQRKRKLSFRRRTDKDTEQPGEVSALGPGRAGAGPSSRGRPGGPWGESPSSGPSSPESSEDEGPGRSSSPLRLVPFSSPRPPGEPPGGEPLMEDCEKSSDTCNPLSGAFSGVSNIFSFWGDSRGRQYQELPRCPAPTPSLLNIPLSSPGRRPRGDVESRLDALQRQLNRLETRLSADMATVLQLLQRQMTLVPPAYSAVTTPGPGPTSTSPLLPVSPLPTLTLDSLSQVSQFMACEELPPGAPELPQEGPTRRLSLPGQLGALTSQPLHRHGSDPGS

Row | Compound | hERG current change (%, negative = inhibition) at 10uM [%]
1 | Cc1cccc(-n2ncc3c(NCc4cccs4)ncnc32)c1 | 4.07
2 | Cn1c(CCNC(=O)c2ccc(Cl)c(Cl)c2)nnc1SCc1ccc(Cl)c(Cl)c1 | 8.82
3 | Cc1ccccc1NC(=O)c1ccc(N/N=C/c2ccccc2O)c([N+](=O)[O-])c1 | 9.72
4 | CCOc1ccc(Br)cc1-c1noc(-c2cccs2)n1 | 4.31
5 | CC(C)c1ccc(NC2CCCN(C(=O)c3ccc(N4CCOCC4)cc3)C2)cc1 (centres unmarked) | -13
6 | CCc1ccc(N2CC(C(=O)NCc3ccco3)CC2=O)cc1 (centres unmarked) | -2.58
7 | CCn1c(SCC(=O)Nc2ccc3c(c2)c2ccccc2n3CC)nnc1-c1cnccn1 | -14.5
8 | O=C(CSc1nnc(-c2cccnc2)n1-c1ccccc1)Nc1ccccn1 | -41
9 | Cc1cc(N)nc2nc(C(F)(F)F)nn12 | 9.99
10 | CN1CCN(NC(=O)C2CC2)CC1 | -0.439
11 | Nc1c([N+](=O)[O-])cc(F)c(N2CCNCC2)c1Br | -9.57
12 | COc1ccc(-n2c(NCCN(C)C)nc3sc4c(c3c2=O)CCCCC4)cc1 | -72.7
13 | COc1cc2c(C(=O)O)c(C)n(-c3ccccc3)c2c2ccccc12 | 6.21
14 | COc1cc(NC(=O)c2cccnc2SC)cc(OC)c1 | 10.2
15 | Cc1ccc(S(=O)(=O)NCC(c2ccco2)S(=O)(=O)c2ccccc2)cc1 (centres unmarked) | -18.4
16 | CCOc1cc(C2C(C(=O)N3CCCCC3)=C(C)NC3=C2C(=O)CCC3)cc(Br)c1O (centres unmarked) | 0.0163
17 | CC(C)NC(=O)COc1ccc(S(=O)(=O)N(C)Cc2ccccc2)cc1 | -40.7
18 | Cc1ccc(Cn2c(SCC(=O)NCc3ccco3)nc3ccsc3c2=O)cc1 | -31.9
19 | COc1ccc(-c2ccc(-c3noc(C)n3)c(OC)n2)cc1 | 6.31
20 | Cc1[nH]c2c(C)cccc2c1CCNC(=O)C1CCCCC1C(=O)OCC(F)(F)F (centres unmarked) | -7.82
21 | COS(=O)(=O)[O-].Cn1c(-c2ccccc2)c[n+]2c1-c1ccccc1C2 | -1.85
22 | CC(NC(=O)c1ccco1)C(=O)N1CCc2ccccc2C1 (centres unmarked) | 12.2
23 | COC(=O)c1ccc(/C=C2/SC(=S)N(CCC(=O)NCCCN3CCOCC3)C2=O)cc1 | 7.24

Row | Compound | hERG current change (%, negative = inhibition) at 10uM [%]
24 | CCOC(=O)c1cc(-c2ccccc2C)n(CC2CC(c3cccc([N+](=O)[O-])c3)=NO2)n1 (centres unmarked) | 0.113
25 | COc1cc([N+](=O)[O-])ccc1N1C(=O)C2C3C=CC(C4CC34)C2C1=O (centres unmarked) | -28.3
26 | CCCOc1ccc(/C=N/Nc2ccccn2)cc1OC | 13.1
27 | CSc1nc(N)c2c(C)c(C)sc2n1 | 11.5
28 | c1ccc(-c2nnc(-c3ccccn3)nn2)nc1 | -6.12
29 | CC1=NNC(=O)C1CCC(=O)N/N=C/c1ccco1 (centres unmarked) | 2
30 | CCOc1ccc2nc(NC(=S)NCc3ccccc3)sc2c1 | 12.5
31 | Cc1ccccc1NCN1C(=O)C2C3C=CC(C3)C2C1=O (centres unmarked) | 6.34
32 | Cc1ccc(C2CC(c3ccccc3)=NN2c2ccccc2)o1 (centres unmarked) | 4.42
33 | CCn1cc([N+](=O)[O-])c(C(=O)NCc2ccc3c(c2)OCO3)n1 | 5.03
34 | CC(C)CC(=O)NNC(=O)C(C)C | 21.7
35 | CCCCn1c(O)c(C=NC2CC3CCC2(C)C3(C)C)c(=O)[nH]c1=O (centres unmarked) | 0.0769
36 | CCOc1ccc2[nH]cc(C(=O)NCc3ccccc3)c(=O)c2c1 | 15.7
37 | CCOCCCNC(=O)CN1C(=O)CSc2ccc(S(=O)(=O)N3CCOCC3)cc21 | 24.7
38 | CCC(=O)Nc1cccc2ccccc12 | 16.4
39 | Cc1cc(C)nc(SC2CCCCC2O)n1 (centres unmarked) | 7.29
40 | COc1ccc(NC(=O)C(=O)N/N=C(\C)CC(=O)Nc2ccccn2)c(OC)c1 | -19.3
41 | CCOC(=O)N1CCN(C(=O)C2CC(=O)N(Cc3ccc(OC)cc3)C2)CC1 (centres unmarked) | 3.44
42 | CN(Cc1nc(-c2cccnc2)no1)S(=O)(=O)c1ccc(Br)cc1 | -46
43 | Cc1cccc(C(C)C)c1NC(=O)COC(=O)C1CC(=O)N(Cc2ccccc2)C1 (centres unmarked) | 0.7
44 | COc1cc(/C=C(\C#N)c2nc3c(s2)CCCC3)ccc1O | 9.3
45 | COCC1CCCCN1C(=O)c1ccc2nc(Cc3ccc(OC)c(OC)c3)oc2c1 (centres unmarked) | 6.77
46 | CSCCC(NC(=O)CCNC(=O)c1ccccc1Cl)c1nc2ccccc2[nH]1 (centres unmarked) | -3.89

Row | Compound | hERG current change (%, negative = inhibition) at 10uM [%]
47 | COc1ccc(CCC(=O)Nc2cccc(S(=O)(=O)N3CCCC3)c2)cc1OC | -13.4
48 | CC(=O)Nc1cccc(-n2c(=O)n(Cc3ccccc3)c(=O)c3[nH]cnc32)c1 | 7.98
49 | COc1ccc(NC(=S)N(CCCN2CCOCC2)Cc2cn(C)c3ccccc23)cc1 | -16.8
50 | CCOC(=O)c1c(N2C(=O)C3C4C=CC(O4)C3C2=O)sc2c1CCCC2 (centres unmarked) | -2.04
51 | Cc1cccc(-n2c(O)c(C=NC3CCS(=O)(=O)C3)c3ccccc3c2=O)c1C (centres unmarked) | -54.1
52 | Cc1c(C)c2ccc(OS(C)(=O)=O)cc2oc1=O | -58.4
53 | O=C(NCC(=O)N(Cc1cccs1)C(C(=O)NC1CCCC1)c1ccncc1)c1ccco1 (centres unmarked) | -7.43
54 | CN(C)C(CNC(=O)CCCc1c[nH]c2ccccc12)c1ccco1 (centres unmarked) | -13.7
55 | O=C(O)CCSC1CC(=O)N(c2ccccc2)C1=O (centres unmarked) | 12.8
56 | Cc1sc2ncnc(N[C@@H](Cc3c[nH]c4ccccc34)C(=O)O)c2c1C | 15.7
57 | O=C(Nc1ccc(NS(=O)(=O)c2ccccc2)cc1)c1cccnc1 | 9.87
58 | O=C(Nc1ccccc1[N+](=O)[O-])C1C(c2ccccc2)=C1c1ccccc1 | 6.63
59 | O=C(Nc1ccc([N+](=O)[O-])cc1)c1cncc(Br)c1 | -13.9
60 | C=CCn1c(=O)c2c3c(sc2n2c(Nc4ccc(C(=O)OCC)cc4)nnc12)CCCC3 | 5.32
61 | O=C1c2ccccc2N2C(=O)c3ccccc3[C@H]2N1c1ccccc1 | -22.4
62 | COc1ccc(-c2nnc(NC(=O)C(C)C)o2)cc1 | -3.15
63 | CC1c2cc3c(cc2CCN1CC(=O)Nc1ccccc1)OCCCO3 (centres unmarked) | -1.37
64 | CN(/N=C/c1cccnc1)C1=NS(=O)(=O)c2ccccc21 | -4.86
65 | N#CC(C#N)C(c1ccsc1)c1c(-c2ccccc2)[nH][nH]c1=O (centres unmarked) | -3.36
66 | CN(C)P(=O)(NC(=O)c1cccn1C)N(C)C | 47.3
67 | COc1ccccc1-c1nc(=S)c(C(C)=O)c(C)[nH]1 | 11.3
68 | Cc1cc(C)nc(SC(C)C(=O)N/N=C/c2cccs2)n1 (centres unmarked) | -0.903
69 | CCN(CC)Cc1c(O)ccc2c(C)c(CC(=O)OC)c(=O)oc12.Cl | 19.9

Row | Compound | hERG current change (%, negative = inhibition) at 10uM [%]
70 | Cc1ccc2[nH]c(=O)c(CN(Cc3cccnc3)Cc3nnnn3CC3CCCO3)cc2c1 (centres unmarked) | -0.809
71 | COc1ccc(C=C(c2ccc(OC)cc2)c2ccc(OC)cc2)cc1 | 13
72 | Cc1c(CCC(=O)N[C@@H](CC(C)C)C(=O)O)c(=O)oc2cc3oc4c(c3cc12)CCCC4 | -2.57
73 | COc1ccc(OC)c(Nc2cc3ccccc3c(=O)[nH]2)c1 | 20.2
74 | COc1ccc(-c2cc(C(F)F)n3ncc(C(=O)Nc4c(C)n(C)n(-c5ccccc5)c4=O)c3n2)cc1 | 8.05
75 | COc1cc2c(cc1OC)C(COc1ccccc1OC)N(C(=O)c1ccco1)CC2 (centres unmarked) | -15.6
76 | CC(C)C(=O)N1CCN(c2nc3ccc(Cl)cc3s2)CC1 | -47.5
77 | O=C(CN1C(=O)COc2ccccc21)N1CCc2ccccc21 | 11.6
78 | CCn1ccnc1CN1CCCC(C(=O)c2cc(Cl)ccc2OC)C1 (centres unmarked) | -73.3
79 | Cc1ccc(S(=O)(=O)NC(=NCc2ccccc2)c2ccc(F)cc2)cc1 | 4.78
80 | CC(C)Nc1nc(NC(C)(C)C)nc(Oc2ccc(=O)n(-c3ccccc3)n2)n1 | 3.15
81 | CCOC(=O)COn1c(=O)c(-c2cccs2)[n+]([O-])c2ccccc21 | -20.4
82 | CC(C)(C)OC(=O)N1CCC[C@H]1C(=O)N/N=C/c1ccc2nccnc2c1 | 19.5
83 | Br.CCCN(CCC)C1CCc2ccc(O)cc2C1 (centres unmarked) | -70
84 | O=C1Nc2ccccc2OCc2c1cccc2[N+](=O)[O-] | -38.7
85 | COc1ccc(-c2nnc(SCc3c(C)noc3C)o2)cc1 | -11.3
86 | CCC(C)[C@H](NC(=O)N1CCCCCC1)C(=O)O (some centres unmarked) | 9.71
87 | CC(=O)Nc1ccc(S(=O)(=O)Nc2ccc(=O)n(Cc3ccc(Cl)c(Cl)c3)c2)cc1 | 12.5
88 | Cc1cc(C=O)c(C)n1-c1ccc(NC2CCCCC2)c([N+](=O)[O-])c1 | 6.04
89 | O=C(CNC(=O)c1ccc2c(c1)OCO2)N/N=C/c1cc(Br)ccc1O | 20.1
